Sequences with one replicate were seen in a single cluster, so their values are uncertain.
Tested on: ATP
Assay: switch fluorescence ratio, 500 uM ATP over buffer (Cy3 cluster intensity, sum of 5 cycles each) (fold (ratio)); higher = stronger signal-on switching upon ATP binding; sequences stand for … in TCGTCGGCAGCGTCAGATGTGTATAAGAGACAGTTTTTTTTTTTTTTTTTTTTTTTTT…TC
Conditions: aptamer strand: ATP DNA aptamer (quencher-CACCTGGGGGAGTATTGCGGAGGAAGG + anchor), 100 nM annealed; ATP concentration: 500 uM; one replicate
Procedure, shortened: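 Clusters carrying Cy3-labelled switching strands on a modified Illumina MiSeq flow-cell were annealed to 100 nM quencher-labelled ATP aptamer and imaged in selection buffer. They were imaged again after 15 min with 500 uM ATP at 22 °C, over five buffer/ATP cycles with NaOH stripping and re-annealing in between. For each cluster, the fluorescence ratio is the summed Cy3 intensity of the target cycles divided by that of the buffer cycles, averaged per switch-domain sequence. Clusters outside 100-1000 RFU were left out.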
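Note: ATP exposure 15 min at 22 °C before imaging.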

Sequence | switch fluorescence ratio
ACCGTGGTGG | 1.02
AACCAGTAG | 1.05
ACAACCATGG | 0.976
CGGTTTCATT | 1.01
ACGGGTTATG | 1.05
GATGCGGTCT | 1.03
ATAGATGACT | 1.04
AATTACCTTT | 1.07
TACTGGCCAG | 0.99
CCGTCGTTTG | 1.03
AGGTGTCTGG | 1.05
GATTAAATTG | 0.988
GATTGGAGAG | 1
GGGCAATCAA | 1.02
ACCAGACTTG | 1.01
CCTGACGTAT | 1.03
CCGTAACC | 1.75
ATCCCCACGT | 1.14
CAGGATAATA | 1.01
CTTAGTATAC | 1.18
GATTTAATG | 1.02
GAAGGGTTT | 0.998
TTTGTTTCGC | 1.03

Sequence | switch fluorescence ratio
CAAGCAGGAT | 1.08
TCGTTGATAG | 1.03
GATGGTGGAG | 0.998
GCATGATGAA | 0.955
TAAGCCGGTG | 0.98
TGGCCGCGAA | 1.21
ACTCACCGTC | 1.3
GGCAGAGTTG | 0.969
TGGGTGTATT | 0.981
CGTACTACTG | 1.03
GTGGTCGATC | 1.07
GTGTTGATGT | 1
ATGCAGCCGC | 1.07
CTATGTCCGA | 1
TGGGACCAC | 0.979
AGACATACGC | 1.44
ACACCTGTAA | 0.994
TCGCACCCTT | 1.15
TAAGCTATAG | 0.999
GGGACTGAGC | 0.968
CAGGGGCATG | 1.22
CCGAGCTCTC | 6.25
ATACCTCTGG | 0.974

Sequence | switch fluorescence ratio
ATCTACAGCT | 1.03
GACAGTGCAC | 1
TAGCGTTGGG | 0.991
ATCAGCTGCT | 0.96
CCTAACACAG | 1.06
TTAACACTC | 1.02
TATACTAGCC | 1.01
ACATGAAACA | 1.06
AGGAAGCATG | 0.986
GGCCCCGGCT | 1.04
ATTTTGACAT | 0.996
ACCTTTTAGC | 1.04
TTGGGACGTG | 0.945
TCTCTTTGGA | 0.991
GTAATTCCGT | 1
GATGTGTCAA | 1.02
CAAATTGAGT | 1.03
CACAGTATTT | 1.07
TGAAGGATTA | 1.01
CGGAAAGATT | 1.02
CGTGTCATTT | 0.975
TGTCCTGATT | 1.01
CTGTTTTTAA | 1.02

Sequence | switch fluorescence ratio
GGATCCTTGG | 1.04
ACACCGGACG | 1.16
GAGCCCTTTT | 1.02
ATGGGAGTGG | 1.02
GCGTGCATAG | 1.04
GAGCTAGTGG | 1
GTCGTGGTGG | 0.975
ATTGGAAGCA | 0.997
TCGGTTACCC | 1.01
CGTGAGTATT | 1.01
CCTGGTTTCT | 0.972
TGGCTATACG | 1.1
GGACCGAGCC | 1.42
TTTAGTTGGG | 1
GAGAGCATTT | 1.01
AACCGACCAC | 1.96
GAAGTCTGAT | 0.964
CTCATGGGTC | 1.08
TTGGGAAAAG | 0.965
CGTCACGTGA | 1
CACGAATTGC | 1.1
TCGGACAACG | 0.989
CCCTTCGGGA | 2.66

Sequence | switch fluorescence ratio
TTCGAATTAT | 0.98
CCCGGGTATC | 1.19
CAATCCAGGA | 1.02
ACGAACCAAA | 1.31
AGCCCACATG | 1.05
TTCAAAAACG | 1.06
ATTATGAAGG | 0.98
ACGCCGCATT | 3.12
GATCGTTCAG | 0.969
GAAGCTGCTG | 0.975
GTGCGGCTAC | 1.2
TCCCCGGATT | 1.19
GACAGTGAGG | 1.03
TAAAGAATCG | 1.01
CACCAGTCCC | 1.03
TCTTGCGGCT | 1.02
GCTCGAATTG | 0.965
ATGAGGTA | 0.999
GCGTGTGTTG | 1.04
CGCCTGTGTC | 1.01
GATGGTGGC | 0.938
TCCCTTGGTA | 1.01
GGAACGCCG | 0.948

Sequence | switch fluorescence ratio
CATAGGACAT | 0.968
AGGGTAAAAA | 1.07
GTGTGGGAAA | 0.999
ATGCATGCAT | 0.989
AGGTGGTCTA | 1
CGCGGGATTG | 1.03
GATGGGTTAG | 1.02
GTCGCTGGGG | 0.965
TATACGACCG | 1.17
GAGGATTACT | 1
GGTTTAACGT | 1.02
CCTTTCGAAT | 1.18
ATCCGGTTAG | 1.09
TTTTGGGCG | 0.968
AAGCCGCAAG | 1.81
ACCAATCCAT | 0.986
GCCGGTGGAA | 0.997
AGGGACTTAG | 0.995
TTCTTGGATA | 0.972
TACAACCTGG | 1.04
CAGGTTAAA | 0.957
AATCGTGTGT | 0.922
TCCACGCCGC | 1.43

Sequence | switch fluorescence ratio
AATGAGCGCG | 1.01
AGCTCGAGAC | 1.03
GATAGCGGGG | 0.967
ATTCTGGACT | 1.05
AGCTACGTGG | 1.06
CTAAAGCAAA | 2.38
TGGATGGCGG | 1.07
TCCCGTTTGT | 1.01
ACATCGCGTC | 1.12
GAAATGCAAC | 1.43
ACCCTCGGGA | 0.972
TGATTTGCAG | 1.03
AGATGAGGAG | 0.993
ACGGGTACTT | 1.11
TTTCATCAAA | 1.02
ATCTGGCTGC | 1.06
CAGTTGGTCG | 1.05
ATGTGCATT | 1.03
AGTATGTGTG | 0.964

Source: the supplement of paper PMC10126150
